Assay results from PubChem BioAssay AID686978 (National Center for Advancing Translational Sciences (NCATS), 2013).
Hit rate of the full screen: of about 420,000 compounds, about 64,000 (15%) were called active. The inconclusive results got no clear call from the source; some entries with a clear call stand among them for comparison. Calls follow the shape of the dose curve; as a rule, active = well fitted inhibition curve with a large enough effect; inconclusive = small, poorly fitted or top-dose-only effect; inactive = flat fitted curve, though single readings scatter. No potency is given beside an inconclusive call; the fits are too rough.

test: qHTS for Inhibitors of human tyrosyl-DNA phosphodiesterase 1 (TDP1): qHTS in cells in absence of CPT; settings: DT40 Tdp1-/- hTDP1 cells, no CPT, ATP luminescence, 48 h; activity change, negative = growth inhibition: at 46.2 µM (top of the series) unless noted; also: nearly all actives have a fitted effect of over 55% in size
Procedure, shortened: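 Compound effects on proliferation are scored in DT40 Tdp1-/-;hTDP1 cells in the absence of CPT. ATP levels (CellTiter-Glo luminescence) are recorded after a ≥48 hr, 37 °C incubation.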
% is scaled to controls: 0 for no effect and ±100 for the full control effect; potency is read from the fitted curve at half-maximal effect; tags tell the direction and shape of the fitted curve.

| SMILES | Potency | activity change, negative = growth inhibition |
| --- | --- | --- |
| O=C1/C(=C/c2ccncc2)SC(=S)N1C1CCCCC1 | inconclusive [inhibitor, single point] | – |
| Cc1ccc(C2CCN(C(=O)Nc3ccc(Cl)cc3)C2)cc1 (stereo unspecified) | inconclusive [inhibitor, single point] | – |
| Cc1cccc(Cl)c1NC(=S)NN | active: 13 µM | – |
| Cc1sc(NC(=O)c2cccc(N3C(=O)CCC3=O)c2)nc1-c1ccccc1 | inconclusive [inhibitor, single point] | – |
| O=C(NCCCN1CCCC1=O)c1ccc(NS(=O)(=O)c2ccccc2)cc1 | inactive | – |
| CCn1c(SCC(=O)Nc2cc(OC)ccc2OC)nc2c(c1=O)SCC2 | active: 25.9 µM | – |
| CC(O)CNCCCOc1cccc(Oc2ccccc2)c1 (stereo unspecified) | active: 16.4 µM | – |
| Cc1occc1C(=O)N/N=C/c1cccc2ccccc12 | inconclusive [inhibitor, single point] | – |
| O=C(COc1ccccc1)N=C1SC2CS(=O)(=O)CC2N1c1ccccc1F (stereo unspecified) | inactive | – |
| CCOc1ccc(/C=C2/C(=O)N(c3ccc(OC)cc3)C(=S)N2CC(=O)OC)cc1OCC | inconclusive [inhibitor, single point] | – |
| CC(=O)Nc1cccc(C(=O)OC(C)C(=O)Nc2ccc(S(=O)(=O)N3CCCC3)cc2)c1 (stereo unspecified) | inconclusive [inhibitor, single point] | – |
| COc1ccc(Oc2ncc3ncc(=O)n(Cc4cccc(OC)c4)c3n2)cc1 | inconclusive [inhibitor, single point] | – |
| COC(=O)CCC(C)C1CCC2C3C(O)C[C@@H]4CC(O)CC[C@@]4(C)C3CC(O)[C@]12C (stereo partly specified) | inconclusive [inhibitor, single point] | – |
| CC(=O)N(C(C)=O)c1ncnc2c1c(-c1ccc(Cl)cc1)nn2C(C)(C)C | active: 18.4 µM | – |
| CCN1CCCc2cc(CN(CCN3CCOCC3)C(=S)Nc3ccccc3OC)ccc21 | active: 16.4 µM | – |
| CCOc1ccccc1OCC(=O)Nc1ccccc1C(=O)NC1CC1 | inconclusive [inhibitor, partial curve, poor fit] | – |
| S=C(NC1CCCCC1)NN1CCCCCC1 | inconclusive [inhibitor, partial curve] | – |
| Cc1cc(C)n(NC(=S)NC2CCCC2)c(=O)c1C#N | inactive | – |
| COc1cccc(OCc2cc(/C=N/n3cncn3)ccc2OC)c1 | inconclusive [inhibitor, single point] | – |
| C=CCn1c(=O)/c(=C/c2cc(OC)c(OC)c(OC)c2)s/c1=C(/C#N)c1nc2ccccc2n1C | active: 18.4 µM | – |
| O=C(NNC(=O)c1ccccc1[N+](=O)[O-])Nc1ccccc1C(F)(F)F | inconclusive [inhibitor, single point] | – |
| CCC1(C)Cc2c(sc3nnn(CC(=O)Nc4ccc(Cl)cc4)c(=O)c23)CO1 (stereo unspecified) | inconclusive [inhibitor, partial curve, poor fit] | – |
| O=C(Nc1ccc(S(=O)(=O)NCc2ccccc2)cc1)c1ccccc1[N+](=O)[O-] | inconclusive [inhibitor, single point] | – |
| Cc1ccc(/C=C2\CCOC2=O)cc1 | inactive | – |

| SMILES | Potency | activity change, negative = growth inhibition |
| --- | --- | --- |
| Cc1ccc(OCc2nc(-c3ccc(C(=O)N4CCN(c5cccc(C(F)(F)F)c5)CC4)cc3)oc2C)cc1 | inconclusive [inhibitor, single point] | – |
| COc1ccc(Br)cc1CNC(C)c1ccccc1 (stereo unspecified) | active: 29.1 µM | – |
| O=C(NCCc1ccc(Cl)cc1)Nc1ccc(Cl)cc1 | – | inconclusive: -33.7% [inhibitor] |
| COc1ccc(CCN(C)C(=O)Cn2c(=O)oc3ccccc32)cc1OC | inactive | – |
| c1ccc2c(c1)nc(N1CCOCC1)c1c3ccccc3[nH]c21 | inconclusive [inhibitor, single point] | – |
| COc1cccc(C(C)(O)c2nc(-c3cccc(NC(C)=O)c3)cs2)c1 (stereo unspecified) | inconclusive [inhibitor, single point] | – |
| C=CCN1C(c2ccccc2)=CS/C1=C(\C#N)c1nnc2n1CCCCC2 | inconclusive [inhibitor, single point] | – |
| O=C(NCCCN1CCCC1)C1CCN(C(=O)c2cc3sccc3n2Cc2ccc(F)cc2)CC1 | inconclusive [inhibitor, single point] | – |
| Cc1cc2cc3c(=O)[nH]c(=O)nc-3n(CC(O)C(O)C(O)CO)c2cc1C (stereo unspecified) | inconclusive [inhibitor, single point] | – |
| COc1ccc(C2CC(c3cccs3)=NN2S(=O)(=O)c2ccc(C)cc2)cc1 (stereo unspecified) | active: 23.1 µM | – |
| COc1cccc(NC(=S)N2CCN(c3ccccn3)CC2)c1 | inconclusive [inhibitor, single point] | – |
| COCCNC(=O)c1ccc(CN2CCOCC2)cc1 | inactive | – |
| O=C(Nc1cc(S(=O)(=O)N2CCCC2)ccc1Cl)c1ccncc1 | inconclusive [inhibitor, single point] | – |
| Cc1ccnc(NC(=O)C2COc3ccccc3O2)c1 (stereo unspecified) | inconclusive [inhibitor, single point] | – |
| COc1ccc(N(CC(C)C)S(=O)(=O)c2nnc(NC(=O)c3cccs3)s2)cc1 | active: 20.6 µM | – |
| O=C(NCc1ccccc1Cl)c1ccc(CSc2nc3ccncc3[nH]2)cc1 | inconclusive [inhibitor, partial curve] | – |
| COc1cc(NC(=O)COc2cccc(C)c2C)ccc1NC(=O)c1ccco1 | inconclusive [inhibitor, single point] | – |
| CCOC(=O)c1c(C)nc2ccccc2c1-c1ccccc1 | active: 18.4 µM | – |
| COCCn1c(SCC(=O)N2CCCCC2)nc2c([nH]c3ccccc32)c1=O | inconclusive [inhibitor, single point] | – |
| COc1ccc(Cl)cc1NC(=O)CSc1nc2ccccc2c2nc(-c3ccccc3)nn12 | inactive | – |
| O=C(Nc1ccc2nc(SCC(=O)N3CCc4ccccc43)sc2c1)c1cccc(F)c1 | active: 4.11 µM | – |
| CCC(=O)NC(=S)Nc1ccc(-c2nc3ccc(C)cc3s2)cc1 | inconclusive [inhibitor, partial curve, poor fit] | – |
| Cc1ccccc1-c1nc(CS(=O)(=O)CC(=O)NCCc2ccccc2)c(C)o1 | inactive | – |
| O=C(Nc1nccs1)c1ccc(-c2ccc(F)c(Cl)c2)o1 | inconclusive [inhibitor, single point] | – |

| SMILES | Potency | activity change, negative = growth inhibition |
| --- | --- | --- |
| CC(C)(C)S(=O)(=O)c1cnc(-c2ccccn2)nc1N | inconclusive [inhibitor, single point] | – |
| CN(C)C(CNC(=O)CCc1c[nH]c2ccccc12)c1ccccc1 (stereo unspecified) | inactive | – |
| CCOC(=O)c1cnc2c(c(C3CC3)nn2C)c1N1CCOCC1 | inconclusive [inhibitor, single point] | – |
| O=C(NCCN1C(=O)S/C(=C\c2ccccc2)C1=O)c1cc(S(=O)(=O)N2CCOCC2)c(Cl)cc1Cl | active: 4.11 µM | – |
| C/C(=N\NC(N)=S)c1ccc(Cl)s1 | active: 4.61 µM | – |
| CC1=C(C(=O)OCc2ccccc2)N2C(=O)[C@@H](NC(=O)COc3ccccc3)[C@H]2SC1 | inconclusive [inhibitor, partial curve] | – |
| O=C(CSc1nnnn1C1CCCC1)N1CCCCC1 | inactive | – |
| Cn1c(=O)oc2cc(S(=O)(=O)Nc3cccc([N+](=O)[O-])c3)ccc21 | inactive | – |
| CC1(c2nnc(-c3cccc(Cl)c3)o2)CC(c2ccc(F)cc2)=NO1 (stereo unspecified) | inactive | – |
| Cc1ccc(C(=O)Nc2ccccc2)cc1S(=O)(=O)Nc1ccc(Br)cc1 | inconclusive [inhibitor, single point] | – |
| O=C(CSc1nc2ccccc2c(=O)n1-c1ccccc1Cl)Nc1cccc(S(=O)(=O)N2CCOCC2)c1 | inconclusive [inhibitor, partial curve, poor fit] | – |
| Cc1ccc(C(=O)N2CCc3cc(CNC(=O)c4ccc(Br)cc4)ccc32)cc1 | active: 14.6 µM | – |
| O=C1C=C(Nc2ccc(O)cc2)CC(c2ccco2)C1 (stereo unspecified) | active: 23.1 µM | – |
| O=C(CC1SC(=Nc2ccccc2)N(CCO)C1=O)Nc1ccccc1 (stereo unspecified) | inactive | – |
| COc1ccc(C(=O)Nc2ccc(N3CCN(C(=O)c4ccccc4)CC3)cc2)cc1[N+](=O)[O-] | inconclusive [inhibitor, single point] | – |
| COc1ccc(C)cc1NC(=O)CSc1nnc2ccc(-c3ccncc3)nn12 | inconclusive [inhibitor, single point] | – |
| Cc1ccccc1NS(=O)(=O)c1cc(C(=O)NCCSC2CCCCC2)ccc1C | inconclusive [inhibitor, single point] | – |
| CC1(C)Cc2c(cnn2-c2ccccc2)C(NC(=O)CCCN2CCCC2=O)C1 (stereo unspecified) | inactive | – |
| COc1ccc(CSc2nnc(C)s2)cc1F | inactive | – |
| CCc1ccc(NC(=S)NC2CC3CCCC(C2)N3Cc2cccs2)cc1 (stereo unspecified) | inconclusive [inhibitor, single point] | – |
| O=S(=O)(c1ccc(-c2cc(C(F)(F)F)on2)s1)N1CCN(c2ccccc2)CC1 | inconclusive [inhibitor, single point] | – |
| c1ccc(CSc2nnnn2-c2cccc3ccccc23)nc1 | inconclusive [inhibitor, partial curve] | – |
| COc1cc(C(=S)N2CCOCC2)cc(OC)c1OS(=O)(=O)c1ccc(Cl)cc1 | inconclusive [inhibitor, partial curve, poor fit] | – |
